# Results from the supplement of paper PMC10338343.
# ± gives the standard deviation. The full ranking holds about 3,000 sequences; the median of “pre-steady-state target cleavage rate” is about 0.0079, and the highest 2% start at about 0.2. The list shows a part of the results, in another mix than the full data.
# Tested on: MILI (PIWIL2) piRISC loaded with piRNA #2 (26 nt)
# Experiment: pre-steady-state target cleavage rate (min^-1); MIWI and MILI are mouse PIWI proteins and EfPiwi is from a freshwater sponge; tags in brackets are library labels; higher = faster piRNA-guided slicing of the target
# Details: guide: piRNA #2 5'p-UUAGGUAACCCAGUAGAUCCAGAGGA; auxiliary factor: 500 nM mouse GTSF1
# Outline: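 A transcribed, DNA-blocked target RNA library (0.1 nM) and 1 nM active affinity-purified piRISC bearing one synthetic guide were incubated in HEPES–potassium acetate buffer at 33 °C for 0–8 or 0–960 min, either with or without 500 nM GTSF1 partner protein. Uncleaved targets were sequenced, normalised to depth and to weakly complementary targets, and pooled over three trials, with k3 capped at 0.0001 min^-1. The pre-steady-state cleavage rate was derived with a burst-and-steady-state fit.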
row,Sequence,pre-steady-state target cleavage rate
1,CUUAACCUCUUGAUCUACUGGGUUACCUAA,0.162 ± 0.026
2,CUUAACCACUGGAACUACUGGGUUACCUAA,0.0782 ± 0.019
3,CUUAACCUCUGGAUCUACUGGGUUACCUAG [g2:g25:cont:t1G],0.119 ± 0.032
4,CUUAACCUCUGGAUGUACUGGGUUACGUAA,0.0343 ± 0.014
5,CUUAACCUCUGGCUCUACUGGGUUACCUAA,0.8 ± 0.2
6,CUUAUUCUCUGGAUCUACUGGGUUACCUAA,0.0752 ± 0.011
7,CUUAAGGUCUGGAUCUACUGGGAUUCCUAA,0.0054 ± 0.004
8,CUUAAGCUCUGGAUCUUCUGGGUUAGCUAA,0.0297 ± 0.011
9,CUUAAGCUCUGGAUCACUGGGUUACCUAA,0.00491 ± 0.004
10,CUUAUCCUGUGGAUCUACUGGGUUAGCUAA,0.0064 ± 0.0042
11,CUUAAGGACUGGAUCUUCUGGGUUACCUUA,0.0144 ± 0.012
12,CUUAAGCUCGGAUCUACUGGGUUACCUAA,0.053 ± 0.022
13,CUUAAGCUCUGGAUGUUCUGGGUUACCUAA,0.052 ± 0.014
14,CUUAAGGUCUGGAUUCUACUGGGUUACCUAA,0.0964 ± 0.026
15,CUUAAGGAGACCUAGUACUGGGUUACCGAA,< 0.0001
16,CUUAACCUGUGGAUCUUCUGGGUUACCUAA,0.0605 ± 0.015
17,CUUAACCACUGGAUCUACUGGGUUACCAAA,0.0546 ± 0.013
18,CUUAACCUCUGGAUCUAGUGGGAUACCUAA,0.0146 ± 0.0055
19,CUUAUCCUCUGGAUCUACUGCGUUACCUAA,0.0178 ± 0.0049
20,CUUAUCCUCAGGAUCUACUGGGUAACCUAA,0.0299 ± 0.0094

row,Sequence,pre-steady-state target cleavage rate
1,CUUAAGCUCUGCAUCAACUGGGUUACCUAA,0.0246 ± 0.009
2,CUUAAGGUCUGGAUCUACUGGGUUACGAAA,0.0388 ± 0.014
3,CUUAAGGAGUGGAUCUACUGGGUUCACCUAA,0.0116 ± 0.0061
4,CUUAAACUCUGGAUCUACUGGGUUACCUAA,0.0428 ± 0.013
5,CUUAAGGUCUGGAUCUGCUGGGUUACCUAA,0.0379 ± 0.0099
6,CUUAAGCUCUGGAUCUACUGGGUUACUUAA,0.0872 ± 0.012
7,CUUAAGCUCUGCAACUACUGGGUUACCUAA,0.0388 ± 0.0098
8,CUUAUCCUCUUGAUCUACUGGGUUACCUAA,0.192 ± 0.029
9,CUUAACCACUGGAUGUACUGGGUUACCUAA,0.0847 ± 0.016
10,CUUAAGGAGAGGAUCUUCUGGGUUACCUAA,0.00554 ± 0.0042
11,CUUAACCUCACCAUCUACUGGGUUACCUAA,0.0404 ± 0.02
12,CUUAAGGAGUGGAUCUACUGGGUCUACCUAA,0.00823 ± 0.0039
13,CUUAACCUCUGGAUCUACUGGGUUAGCUAA,0.112 ± 0.022
14,CUUAUCCUCUGGAUCUACAGGGUUACCUUA,0.115 ± 0.019
15,CUUAAGGUCUGCGAUCUACUGGGUUACCUAA,0.0524 ± 0.012
16,CUUAAGGUCUGGAACAACUGGGUUACCUAA,0.0187 ± 0.01
17,CUUAAGGUCUGGAUUUACUGGGUUACCUAA,0.0923 ± 0.016
18,CUUAACGUCUGGAUCUACUGGGUAACCUAA,0.0379 ± 0.011
19,CUUAUCCACUGGAUCUACAGGGUUACCUAA,0.0952 ± 0.011
